In all, about 310,000 compounds went through this assay and about 14,000 (4.5%) showed an effect of 50% or more. The effect is printed as a negative number. Some of the results follow.
Target: human ether-à-go-go-related gene (hERG) potassium channel (human, UniProt Q12809)
Assay: primary screen, population patch clamp on CHO cells stably expressing hERG
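Note: peak tail current of the secondary pulse compared with the same well before compound.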

Chain of human ether-à-go-go-related gene (hERG) potassium channel (Q12809 whole entry, looked up): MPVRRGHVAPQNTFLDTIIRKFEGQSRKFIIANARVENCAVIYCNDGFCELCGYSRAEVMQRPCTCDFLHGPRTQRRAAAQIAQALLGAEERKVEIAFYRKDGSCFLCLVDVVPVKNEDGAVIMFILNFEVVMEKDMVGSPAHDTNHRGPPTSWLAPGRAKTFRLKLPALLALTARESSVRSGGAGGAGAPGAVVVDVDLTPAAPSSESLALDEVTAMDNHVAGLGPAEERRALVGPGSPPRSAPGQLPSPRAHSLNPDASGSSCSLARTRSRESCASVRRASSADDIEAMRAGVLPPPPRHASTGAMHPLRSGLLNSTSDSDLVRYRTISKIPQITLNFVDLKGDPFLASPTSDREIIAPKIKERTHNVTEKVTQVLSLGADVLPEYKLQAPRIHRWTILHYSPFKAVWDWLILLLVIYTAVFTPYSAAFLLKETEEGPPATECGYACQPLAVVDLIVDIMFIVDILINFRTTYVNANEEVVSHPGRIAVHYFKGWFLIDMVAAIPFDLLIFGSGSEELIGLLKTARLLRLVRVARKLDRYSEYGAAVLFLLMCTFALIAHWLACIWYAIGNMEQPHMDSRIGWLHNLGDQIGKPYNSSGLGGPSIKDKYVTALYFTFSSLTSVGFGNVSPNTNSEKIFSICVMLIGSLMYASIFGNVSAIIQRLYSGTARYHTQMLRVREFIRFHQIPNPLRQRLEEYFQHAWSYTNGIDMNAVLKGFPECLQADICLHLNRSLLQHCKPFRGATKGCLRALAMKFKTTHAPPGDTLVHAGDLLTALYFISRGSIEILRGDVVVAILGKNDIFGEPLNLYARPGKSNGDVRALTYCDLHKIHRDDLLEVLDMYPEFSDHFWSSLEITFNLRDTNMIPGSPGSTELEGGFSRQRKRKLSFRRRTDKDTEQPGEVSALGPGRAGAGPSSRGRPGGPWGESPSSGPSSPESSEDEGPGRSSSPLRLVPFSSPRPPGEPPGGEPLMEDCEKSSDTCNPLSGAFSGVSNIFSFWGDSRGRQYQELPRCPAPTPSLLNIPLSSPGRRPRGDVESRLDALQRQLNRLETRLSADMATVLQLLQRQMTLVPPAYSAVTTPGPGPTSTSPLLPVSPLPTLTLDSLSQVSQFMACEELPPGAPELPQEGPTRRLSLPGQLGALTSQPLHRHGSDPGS

Row | Structure (SMILES) | hERG current change (%, negative = inhibition) at 10uM
1 | Cc1onc(-c2ccccc2)c1C(=O)Nc1ccc2c(C)cc(=O)oc2c1 | -1.34%
2 | O=C(NCc1ccccc1)c1ccc2c(c1)S(=O)(=O)c1cc(Cl)ccc1C2=O | -7.5%
3 | CSc1nc(C)cc(SC(C(C)=O)C(=O)Nc2ccccc2)n1 (stereo not shown) | 17.6%
4 | COCCN(C(=O)c1ccccc1)c1nnc(-c2cccnc2)s1 | -4.56%
5 | N#Cc1c(N)c(C(=O)c2ccccc2)n2c1CCCC2 | -7.25%
6 | CC1=NN(c2ccccc2)C(=O)C1 | 31.8%
7 | Cc1cccc(C)c1NC(=O)C1(N(Cc2ccco2)C(=O)Cn2nnnc2N)CCCCC1 | 14.9%
8 | COc1ccc(N2CCC(CNC(=O)Nc3ccccc3)C2)cc1 (stereo not shown) | -9.13%
9 | O=C1CC(c2ccccc2)Cc2nc(NC3CC3)ncc21 (stereo not shown) | -7.97%
10 | COc1ccccc1CNC(=O)c1oc2ccc(S(=O)(=O)N3CCOCC3)cc2c1C | -23.8%
11 | COc1cccc(CN2CC(C(=O)N3CCN(C(C)C)CC3)CCC2=O)c1 (stereo not shown) | 2.95%
12 | C=CCSc1nnc(CCCCCN2C(=O)c3cccc4cccc(c34)C2=O)o1 | -17.2%
13 | c1ccc(Cn2cc(-c3cccnc3)cn2)cc1 | -1.33%
14 | CC(=O)C(C)n1c(CN2CCN(C(=O)c3ccco3)CC2)nc2c1c(=O)n(C)c(=O)n2C (stereo not shown) | 15.6%
15 | O=C(O)C(=O)O.O=[N+]([O-])c1ccccc1CNCCc1c[nH]c2ccccc12 | -22%
16 | N#Cc1cncc(-c2ccc3c(c2)OCCOCCOCCOCCOCCO3)n1 | -86.9%
17 | COc1cc(NS(=O)(=O)c2ccc(NC(=S)NC(=O)c3sc4cc(F)ccc4c3Cl)cc2)nc(OC)n1 | 11.4%
18 | Cn1c(-c2ccc(F)cc2)cnc1NCc1cccc([N+](=O)[O-])c1 | -70.9%
19 | CCN1CCN(c2ccc(S(=O)(=O)N3CCCCC3)cc2NC(=O)c2cccc(C(F)(F)F)c2)CC1 | -46.7%
20 | O=C(CS(=O)(=O)c1ccc(Cl)cc1)NCc1ccccc1 | 9.73%
21 | COc1cccc(C(=O)N(Cc2cc3cc(C)ccc3[nH]c2=O)CC2CCCO2)c1 (stereo not shown) | -17.4%
22 | COc1cccc(C(=O)O[C@H]2[C@H](C)NS(=O)(=O)[C@H]3C[C@@H]4C=C[C@]23O4)c1 | 19.7%

Row | Structure (SMILES) | hERG current change (%, negative = inhibition) at 10uM
23 | CCOC(=O)c1cnn(-c2ccc(NS(=O)(=O)c3ccc(Cl)cc3)cc2)c1C(F)(F)F | 0.457%
24 | Clc1ccc(OCCCN2CCCCC2)c(Br)c1.O=C(O)C(=O)O | -70.7%
25 | COc1ccc(NC(=O)CN(c2ccc([N+](=O)[O-])cc2)S(=O)(=O)c2ccccc2)c(OC)c1 | -11.7%
26 | CC(C)Cc1nc(N2CCN(C(=O)c3ccco3)CC2)c(C#N)c2c1CCCC2 | 2.1%
27 | Cc1nc2ccccn2c1C(=O)NC1CCCc2ccccc21 (stereo not shown) | 13.4%
28 | O=C(NN1CCOCC1)c1ccc(F)cc1 | 1.47%
29 | CCCS(=O)(=O)c1nc(S(=O)(=O)c2ccc(C)cc2)c(NCc2ccc3c(c2)OCO3)s1 | 15%
30 | COc1ccc(C(C(=O)NC(C)(C)C)N(C(=O)CCC(=O)Nc2ccccn2)C2CCCCC2)cc1 (stereo not shown) | -13.6%
31 | CCN(CC(=O)Nc1ccc2c(c1)OCO2)Cc1nc2ccccc2c(=O)[nH]1 | -13.6%
32 | O=C(O)CSc1nc2ccc(C(=O)c3ccccc3)cc2[nH]1 | 17.2%
33 | Cc1[nH]c2c(C)cccc2c1CCNS(=O)(=O)c1cccc([N+](=O)[O-])c1 | -1.47%
34 | CC(C)(C)Cc1nnc(NC(=O)CCc2ccccc2)s1 | 5.53%
35 | CN(C)CCO[C@@H](c1ccc(Cl)cc1)c1ccccn1.O=C(O)/C=C\C(=O)O | -29.5%
36 | O=C(Cc1cccs1)N/N=C/C=C\c1ccco1 | 11.1%
37 | O=C(NCc1ccccc1Cl)c1cccc(OC2CCN(C(=O)C3CC3)CC2)c1 | -19.4%
38 | CCCc1nc2ccc(NC(=O)c3cccs3)cc2c(=O)n1Cc1ccc(Cl)cc1 | 1.44%
39 | O=C(c1ccc(Cl)cc1)N1CCC(O)(CSc2ccc(Cl)cc2Cl)CC1 | -15.1%
40 | O=C(NCc1ccco1)C(=S)N1CCCCC1 | 22.6%
41 | COC(=O)c1ccc(N2C(=O)C3C4C=CC(CC4)C3C2=O)cc1 (stereo not shown) | 19.3%
42 | O=c1c2ccccc2ncn1Cc1cccc2ccccc12 | 7.64%
43 | Cc1ccccc1NC(=O)CCCN1C(=O)C2CC=CCC2C1=O (stereo not shown) | 7.49%
44 | O=S(=O)(c1ccccc1)c1ncc(C(F)(F)F)cc1O | 9%

Row | Structure (SMILES) | hERG current change (%, negative = inhibition) at 10uM
45 | Cc1ccc(S(=O)(=O)NCC(=O)NCC(=O)OCC(=O)NC(=O)NC(C)(C)C)cc1C | 15%
46 | O=C(COC(=O)Cn1[nH]c(=O)c2ccccc2c1=O)Nc1ccc2c(c1)OCO2 | 4.31%
47 | Cc1cccc2c1CC(C)(C)N/C2=C\C(N)=O | 8.37%
48 | Cc1ccsc1/C=N\Nc1cn[nH]c(=O)c1Cl | 14.2%
49 | CSc1ncc(Cl)c(C(=O)Nc2nnc(SC)s2)n1 | -38.7%
50 | O=C(N/N=C/c1ccccn1)c1ccc(S(=O)(=O)N2CCCCCC2)cc1 | 11.2%
51 | C=C[C@H](CC(C)C)N(Cc1ccccc1)S(=O)(=O)N(Cc1ccc(OC)cc1)[C@H](C=C)CC(C)C | -23%
52 | CSCCOC(=O)COc1ccc(/C=N/NC(=O)c2c(Cl)cnn2C)cc1 | 3.85%
53 | COc1ccc(CNC(=O)CCCn2ncn3c(cc4occc43)c2=O)cc1 | -22.4%
54 | CCN(CC)c1ccc(S(=O)(=O)N2CCOCC2)cc1NC(=O)CSc1cccc[n+]1[O-] | 3.89%
55 | CCOC(=O)N1CCC(NC(=O)CC2C(=O)NCCN2Cc2ccccc2)CC1 (stereo not shown) | -1.48%
56 | CCCCCN(C(=O)CCC(=O)OCc1cccc(C)c1)c1c(N)n(CCCC)c(=O)[nH]c1=O | 1.51%
57 | COc1ccc(Nc2ccncc2[N+](=O)[O-])cc1 | -11.5%
58 | CCN1C(=O)C(O)(CC(=O)c2cccc(-n3cccc3)c2)c2ccccc21 (stereo not shown) | -4.08%
59 | CSCC(C)N1CCC(CO)(CCCc2ccccc2)CC1 (stereo not shown) | -55.7%
60 | COc1cc(-c2n[nH]c(=S)n2-c2ccccc2C(F)(F)F)cc(OC)c1OC | 6.38%
61 | CCN(CC)CCC(=O)N1c2ccccc2CCc2ccc(NC(=O)OC)cc21.Cl | -8.57%
62 | O=C(O)CCC(=O)Nc1ccc(-c2nc3ccc(C(=O)c4ccccc4)cc3[nH]2)cc1 | 20.2%
63 | CCCCNc1c(-c2ccc(SC(C)CC)c(OC)c2)nc2ccc(C)cn12.O=C(O)C(F)(F)F (stereo not shown) | -2.22%
64 | CCC(C)(C)n1nnnc1CN1CCC(NC(=O)c2ccc(Br)cc2)CC1 | -39.2%
65 | CN=C1CN(O)C(c2ccccc2)=c2cc(Cl)ccc2=N1 | 18.6%
66 | Cc1ccc(-n2nc(C)c(C(=O)O)n2)c(C)c1 | -4.08%

Row | Structure (SMILES) | hERG current change (%, negative = inhibition) at 10uM
67 | CC(C)CN1C(=O)c2ccc(NC(=O)C3CC3)cc2C1=O | 5.04%
68 | CCCCNS(=O)(=O)c1ccc2nc(SCC(=O)Nc3cc(C)cc(C)c3)[nH]c2c1 | 10.4%
69 | CC(C(=O)N1CCc2ccccc21)N(C)CC(=O)Nc1ccccc1Cl (stereo not shown) | -29.2%
70 | CCCN1C(=O)SC(CC(=O)Nc2cccc3ccccc23)C1=O (stereo not shown) | 10.8%
71 | O=C(CCOc1ccccc1)Nc1cccc([N+](=O)[O-])c1 | -19.8%
72 | CN(c1ccccc1)S(=O)(=O)c1cccc(NC(=O)c2ccc(=O)[nH]c2)c1 | -11.7%
73 | COc1ccc(CNC(=O)c2ccccc2SCC(=O)NCc2ccco2)cc1 | -31.3%
74 | CC(=O)c1cccc(N(CC(=O)NC2CCCC2)C(=O)c2csnn2)c1 | 15.7%
75 | Cc1c(C(=O)NC(C)C)sc2ncn(CC(=O)N3CCC(C)CC3)c(=O)c12 | 3.27%
76 | CCOc1cc(/C=N/NC(=O)c2ccc(=O)n(C)c2)ccc1O | 1.61%
77 | CCN1CCN(Cc2c(O)ccc3c2O/C(=C\c2ccccc2)C3=O)CC1 | -3.69%
78 | O=C(CN1C(=O)NC2(CCCCC2)C1=O)N1CCN(c2ncccn2)CC1 | 0.553%
79 | CCOC(=O)c1c(-c2ccccc2)oc2ccc(OCC(O)CN(C)C)cc12 (stereo not shown) | -33.8%
80 | O=C(Nc1ccccc1)OCc1cncs1 | 25.5%
81 | COc1ccc(O)c(CN2CCCC(N3CCN(c4ccc(F)cc4)CC3)C2)c1 (stereo not shown) | -59.7%
82 | Cc1ccc(-c2ccc(SCC(=O)NCC3CCCO3)nn2)cc1 (stereo not shown) | -5.69%
83 | COc1ccc2c(C)cc(SCC(=O)c3ccc4c(c3)OCO4)nc2c1 | 1.07%
84 | O=C(CN1C(=O)NC2(CCCC2)C1=O)N1CCc2ccccc2C1 | 20.5%
85 | O=C(NC(=S)Nc1ccc(S(=O)(=O)Nc2nccs2)cc1)c1ccc(F)c(F)c1 | 2.19%
